# Measured values reported in paper PMC4336329 (PLoS ONE, 2015).
# The campaign covered roughly 310,000 compounds. About 2,200 (0.71%) showed an effect of 50% or more. Effects have a minus sign here. This is one part of the list.
# Target: human ether-à-go-go-related gene (hERG) potassium channel (human, UniProt Q12809)
# Assay: primary screen, population patch clamp on CHO cells stably expressing hERG
# human ether-à-go-go-related gene (hERG) potassium channel, sequence (Q12809 whole entry, looked up): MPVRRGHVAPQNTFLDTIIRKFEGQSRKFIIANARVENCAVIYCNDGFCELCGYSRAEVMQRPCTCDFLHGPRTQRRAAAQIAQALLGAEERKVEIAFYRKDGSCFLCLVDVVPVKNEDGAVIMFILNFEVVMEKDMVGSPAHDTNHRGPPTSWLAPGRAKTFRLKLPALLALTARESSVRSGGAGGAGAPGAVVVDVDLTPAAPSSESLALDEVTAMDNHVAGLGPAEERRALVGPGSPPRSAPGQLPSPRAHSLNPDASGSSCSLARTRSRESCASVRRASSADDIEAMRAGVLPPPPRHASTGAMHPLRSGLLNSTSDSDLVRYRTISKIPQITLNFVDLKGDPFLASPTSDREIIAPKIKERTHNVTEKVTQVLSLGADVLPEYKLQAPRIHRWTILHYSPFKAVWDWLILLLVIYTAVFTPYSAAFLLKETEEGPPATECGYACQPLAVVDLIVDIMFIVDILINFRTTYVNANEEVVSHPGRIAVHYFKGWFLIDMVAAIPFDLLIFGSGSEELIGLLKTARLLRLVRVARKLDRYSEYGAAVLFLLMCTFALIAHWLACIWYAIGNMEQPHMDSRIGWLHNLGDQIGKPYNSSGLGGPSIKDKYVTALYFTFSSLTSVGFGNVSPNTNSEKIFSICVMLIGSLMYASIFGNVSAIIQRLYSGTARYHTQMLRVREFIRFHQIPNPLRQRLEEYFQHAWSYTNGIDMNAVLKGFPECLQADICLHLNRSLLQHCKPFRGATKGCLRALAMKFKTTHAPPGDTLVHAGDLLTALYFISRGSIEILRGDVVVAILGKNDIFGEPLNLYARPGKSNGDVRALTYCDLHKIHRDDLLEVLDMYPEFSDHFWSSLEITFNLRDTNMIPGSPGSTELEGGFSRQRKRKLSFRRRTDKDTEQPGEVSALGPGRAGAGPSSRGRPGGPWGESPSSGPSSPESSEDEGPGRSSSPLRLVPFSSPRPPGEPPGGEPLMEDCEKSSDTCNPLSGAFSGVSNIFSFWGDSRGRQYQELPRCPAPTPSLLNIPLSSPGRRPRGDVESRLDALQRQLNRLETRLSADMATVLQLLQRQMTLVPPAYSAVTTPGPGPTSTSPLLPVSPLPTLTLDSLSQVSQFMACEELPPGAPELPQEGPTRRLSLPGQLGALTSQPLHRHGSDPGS
row,SMILES,"hERG current change (%, negative = inhibition) at 1uM [%]"
1,COc1cc(OC)c(NC(C)C(=O)N2CCCC2)cc1Cl (centres unmarked),14
2,COc1ccc(/C(C)=N/NC(=O)c2ccncc2)cc1[N+](=O)[O-],5.96
3,Cc1cc(-n2c(C)cc(C(=O)CSc3nnc4sc5ccccc5n34)c2C)no1,2.34
4,CCOc1ccc(OCC(=O)OC(C)C(=O)Nc2ccc(Cl)cn2)cc1 (centres unmarked),4.38
5,N/C(=N\OC(=O)c1cccs1)c1cccc([N+](=O)[O-])c1,16.6
6,CCn1c(=O)n(CC)c2cc(S(N)(=O)=O)ccc21,-1.8
7,CCOc1cc(-c2cc(-c3ccc(C)cc3)nc(N)c2C#N)ccc1O,-8.08
8,CCc1ccc(-n2nnnc2SCC(=O)NNC(=O)c2ccco2)cc1,8.49
9,c1ccc(OCCCCn2cnc3ccccc32)cc1,-15.1
10,CC(C)c1ccc(CNc2ncc(Br)cn2)cc1,11.6
11,CCOCCCNS(=O)(=O)c1cc(Br)cc2c1N(C(=O)C1CC1)CC2,7.14
12,CN(C)Cc1nc2ccccc2c(=O)n1Cc1nc(-c2cc3ccccc3o2)cs1,9.15
13,O=C(Cc1cccc(NC(=O)C2CCCN(C(=O)CCc3ccccc3)C2)c1)Nc1cccc(C(=O)N2CCCC2)c1 (centres unmarked),-4.58
14,N#CCSc1ccc2nc(-c3ccccc3)cn2n1,11.2
15,CC1(C)C2CCC(C2)C1(C)NC(=O)C[N+](C)(C)C.[Cl-] (centres unmarked),11.9
16,Cc1ccc(CNC(=O)COC(=O)c2cc3c(s2)CCC(C)C3)cc1 (centres unmarked),14.3
17,O=C(NCC1COCCO1)c1cc(COc2c(F)cccc2F)on1 (centres unmarked),17.9
18,Cc1ccc2oc(C(=O)N3CCN(c4cccc(C)n4)CC3)c(C)c2c1,15.6
19,CCOC(=O)CSc1nnc(CNC(=O)c2cccs2)n1-c1cc(OC)ccc1OC,-1.38
20,Brc1cccc(CNCCc2ccc3c(c2)OCO3)c1.O=C(O)C(=O)O,-0.131
21,Cc1ccc(NC(=O)CSc2nnc(NC(=O)CN3CCOCC3)s2)cc1,-1.91
22,Cc1ccccc1CCNC(=O)C1CCC(=O)N(Cc2ccc(Cl)cc2)C1 (centres unmarked),-19.6
23,CC(c1ccccc1)C(CC(=O)O)C(=O)Nc1ccc(Cl)c(Cl)c1 (centres unmarked),16.2

row,SMILES,"hERG current change (%, negative = inhibition) at 1uM [%]"
1,CCOC(=O)N1CCN(S(=O)(=O)c2ccc(F)c(C(=O)Nc3cccc(C)c3C)c2)CC1,11.2
2,CS(=O)(=O)c1ccc2nc(NC(=O)CN3CCC(Cc4ccccc4)CC3)sc2c1,12.9
3,CSc1ncccc1C(=O)OCC(=O)Nc1ccc(S(=O)(=O)N2CCCC2)cc1,13.5
4,CC(C)Oc1ccc(CNC(=O)c2cc(S(=O)(=O)N3CCOCC3)cn2C)cc1,14.8
5,O=C(COC(=O)C1(c2ccc(F)cc2)CCCC1)Nc1ncc(C(F)(F)F)cc1Cl,2.97
6,COc1cccc(N=CC2=C(O)CCCC2=O)c1,1.96
7,Cc1nc(N2CCC(C)CC2)c2c(C)c(C(=O)Nc3cccc(C(F)(F)F)c3)sc2n1,9.18
8,O=C(NCC1CCCO1)C(c1ccncc1)N(Cc1cccs1)C(=O)Cn1nnc(-c2ccc(F)cc2)n1 (centres unmarked),-13.7
9,CCS(=O)(=O)N1CCC(NC(=O)C2CCCCC2)CC1,14.4
10,CCCCNC(=O)C1CCCNC1=O (centres unmarked),17.5
11,Cc1cnnn1-c1ccc(C(=O)CCl)cc1,17.2
12,O=S(=O)(c1ccc(Br)cc1)N1CCCC1,5.13
13,CCOC(=O)c1ccc(NC(=S)N(CCN(C)C)Cc2cccs2)cc1,5.35
14,CN(C)c1cccc(NC(=O)c2cccc3ccccc23)c1,13
15,Cc1ccc(NC(=O)C2COc3ccccc3O2)cc1 (centres unmarked),8.23
16,COc1ccc(NC(=O)c2cc3ccccc3cc2O)cc1,12.9
17,Cc1nnnn1/C(=C\c1ccccc1)C(=O)OCC(=O)N(C)C1CCS(=O)(=O)C1 (centres unmarked),13.2
18,Clc1cccc(OCCn2cncn2)c1Cl,6.73
19,CCC1C(=O)Nc2nc(-c3ccccc3)c(-c3ccccc3)n2N=C1C (centres unmarked),1
20,Nc1cc(N)nc(SCCOc2ccccc2F)n1,15.5
21,NC(=O)C(CCC(=O)c1ccc(Br)cc1)S(=O)(=O)c1ccccc1 (centres unmarked),0.865
22,Cc1ccc(NC(=O)CSc2nc3c(c(=O)[nH]2)CCC3)cc1C,-3.15
23,COc1cccc(OC)c1C(=O)NC(=S)N1CCCCC1c1cccnc1 (centres unmarked),11.9

row,SMILES,"hERG current change (%, negative = inhibition) at 1uM [%]"
1,CCOC(=O)N1CCC(Nc2c(NCCN3CCN(c4cccc(Cl)c4)CC3)c(=O)c2=O)CC1,2.73
2,CC(N=C1NC(C)(C)Cc2ccccc21)C(=O)O (centres unmarked),5.34
3,CC(=O)c1ccc(Nc2ccc(-c3ccccc3C)nn2)cc1,6.01
4,Cc1ccc(C2CC(c3cccs3)=NN2C(=O)CSc2nc(=O)n3ccc(C)cc3n2)cc1 (centres unmarked),-4.83
5,CS(=O)(=O)N(Cc1ccco1)Cc1ccccc1Cl,0.357
6,CCOC(=O)C1(CC/C(C)=N\NC(N)=O)CC(C)(C)OC1=O (centres unmarked),15
7,CCCNC(=O)OCc1cccnc1Sc1ccc(C)cc1,1.55
8,COc1ccc(NC(=O)c2ccc(-n3nc(C)cc3C)cc2)cc1OC,8.22
9,O=C(O)CN1C(=O)/C(=C\c2cc(Br)ccc2OCc2ccccc2Cl)SC1=S,15.8
10,O=S1(=O)CCC(N2CCOCC2)C1 (centres unmarked),4.59
11,COC(=O)Nc1nc(-c2ccccc2)c(C(=O)c2ccc(Cl)cc2)s1,0.489
12,COc1ccc(-c2csc(N3CCN(S(=O)(=O)c4ccc5c(c4)NC(=O)CO5)CC3)n2)cc1,18.5
13,COc1ccc(OCC(=O)N2CCN(C(=O)Cc3ccccc3)CC2)cc1,-11.2
14,CCOc1ccc(CCNC(=O)COC(=O)c2cc(OC)c(OC)c(OC)c2)cc1OCC,4.5
15,COc1cccc(CNC(=O)CN2C(=O)COc3ccc(S(=O)(=O)N4CCCCC4)cc32)c1,13.5
16,O=C(CSc1ccc(-c2ccco2)nn1)NC1CCCC1,11.8
17,COc1ccc(-c2oc3ccccc3c(=O)c2OCC(=O)O)cc1,15.1
18,O=C(C1CCCO1)N1CCN(C(=S)NC2CC2)CC1 (centres unmarked),13.6
19,Cc1ccc(C(=O)Cn2nnc(-c3cccs3)n2)cc1,11.2
20,Cc1nnc(SCC(=O)N2CCCC2)n1-c1ccc(F)cc1,4.38
21,CC(=O)OCC(COC(C)=O)OC(C)=O,21
22,N#C/C(=N\O)c1nc2ccccc2s1,12.6
23,CCOC(=O)c1sc(NC(=O)Cc2ccc(C)cc2)nc1C,-13.6

row,SMILES,"hERG current change (%, negative = inhibition) at 1uM [%]"
1,CCCOc1ccc(CSC(CC(=O)O)C(=O)O)cc1 (centres unmarked),1.58
2,CCOc1ccccc1/C=C/c1onc(C)c1S(=O)(=O)N1CCC(C(=O)NC(C)(C)C)CC1,14.6
3,CCN(CC)CCNCc1ccc(-c2ccc(Cl)cc2)o1.Cl,-45.2
4,Cc1cc(C=C2C(=O)NC(=S)NC2=O)c(C)n1C1CCCC1,9.53
5,CC(=O)c1sc2nc(CSc3nncn3C)[nH]c(=O)c2c1C,8.38
6,O=C(c1ccccn1)N1CCN(c2cccc(C(F)(F)F)c2)CC1,7.88
7,CCOC(=O)C1CCCN(C(=S)Nc2cccc(Cl)c2C)C1 (centres unmarked),14.2
8,O=C(CC12CC3CC(CC(C3)C1)C2)Nc1ccc2c(c1)COC2=O,-3.99
9,CCNc1nc(NC(C)(C)C)nc(Oc2ccc(=O)n(-c3ccccc3)n2)n1,0.403
10,Cc1cc(C)c2sc(N)nc2c1,17
11,Cc1ccc(/C=N/NC(=O)c2cccs2)s1,7.92
12,CC1CC(NC(=O)CCn2c(=O)oc3ccccc32)CC(C)(C)C1 (centres unmarked),0.453
13,Cc1cc(C)c2nc(NC(=O)c3ccc4c(=O)n5c(nc4c3)CCCCC5)sc2c1,11.9
14,Cc1ccc(Nc2c(-c3ccc(N4CCOCC4)cc3)nc3ncccn23)c(C)c1,-0.4
15,CCC(C)(C)C1CCC2(CC1)NC(CO)(CO)CO2 (centres unmarked),9.42
16,O=C(COC(=O)/C=C/c1ccccc1)NCc1cccs1,-5.63
17,COc1ccccc1CN1CCN(C(=O)COc2ccc3ccccc3c2)CC1,4.42
18,CC1Cc2cc(/C(O)=C3/C(=O)C(=O)N(CCCn4ccnc4)C3c3cccnc3)ccc2O1 (centres unmarked),-0.337
19,O=C(Oc1ccc(C(=S)N2CCOCC2)cc1)c1ccccc1[N+](=O)[O-],21.2
20,Cc1cc(C(F)(F)F)c(C#N)c(=O)[nH]1,14.8
21,Cc1cccc(NC(=S)NCCc2ccc3c(c2)OCCO3)c1C,-2.96
22,CSCCC(=O)Nc1cc(S(=O)(=O)N2CCOCC2)ccc1N1CCN(C)CC1,10.6
23,Cc1nc2ccc(Br)cn2c(=O)c1Cl,1.19
